Many values rest on one well or one pass, so single values are uncertain.
Columns and labels:
[1] = test system: CHO-K1; assay: micronucleus frequency (% of nucleated events); higher = more micronuclei (genotoxic)
[2] = test system: CHO-K1; assay: hypodiploid nuclei frequency (% of nucleated events); higher = more hypodiploid events (aneugenic)
Method: (§1)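 Flow-cytometric in vitro micronucleus assay (Litron MicroFlow) in CHO-K1 cells in 96-well plates, 19 concentrations (4.5-200 µM, n=1 per concentration). Without S9, cells were exposed for 24 h and sampled at 48 h. With Aroclor 1254-induced rat liver S9, cells were exposed for 3-4 h and sampled at 27-28 h. Read-outs are %MN and %hypodiploid nuclei relative to nucleated events, and relative survival as the nuclei-to-bead ratio versus the 1% DMSO vehicle control (x100).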

[3] = test system: CHO-K1; assay: relative survival (nuclei to bead ratio vs DMSO control) (% of vehicle control); higher = more surviving cells
Method: as §1
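For hypodiploid nuclei frequency (% of nucleated events) in this document: hypodiploid nuclei gated on a flow cytometer with 488 nm excitation after SYTOX Green staining, cultures at 37 °C, positive controls vinblastine without S9 and cyclophosphamide with S9.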
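For micronucleus frequency (% of nucleated events) in this document: cells lysed with nuclei stained by SYTOX Green, then micronucleus-gated events counted against nucleated events by flow cytometry with 488 nm excitation.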
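For relative survival (nuclei to bead ratio vs DMSO control) in this document: Lysed-cell nuclei stained with SYTOX Green and counted against counting beads by flow cytometry at 488 nm excitation, with vinblastine (no S9) and cyclophosphamide (plus S9) as positive controls.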

c1ccc2cc3ccccc3cc2c1 [Anthracene]
Details	hypodiploid nuclei frequency, [2] [%]	micronucleus frequency, [1] [%]	relative survival, [3]
concentration: 4.5 (µM), S9 metabolic activation: with S9, exposure time: 3-4 hours	0.28	2.12	96.2
concentration: 4.5 (µM), S9 metabolic activation: without S9, exposure time: 24 hours	0.66	1.28	129
concentration: 5.63 (µM), S9 metabolic activation: with S9, exposure time: 3-4 hours	0.26	1.92	96.2
concentration: 5.63 (µM), S9 metabolic activation: without S9, exposure time: 24 hours	0.78	1.04	117
concentration: 7.04 (µM), S9 metabolic activation: with S9, exposure time: 3-4 hours	0.26	1.34	92.8
concentration: 7.04 (µM), S9 metabolic activation: without S9, exposure time: 24 hours	0.66	0.96	120
concentration: 8.8 (µM), S9 metabolic activation: with S9, exposure time: 3-4 hours	0.16	0.9	69.3
concentration: 8.8 (µM), S9 metabolic activation: without S9, exposure time: 24 hours	0.36	1.28	123
concentration: 11 (µM), S9 metabolic activation: with S9, exposure time: 3-4 hours	0.18	1.3	93.4
concentration: 11 (µM), S9 metabolic activation: without S9, exposure time: 24 hours	0.62	1.2	133
concentration: 13.7 (µM), S9 metabolic activation: with S9, exposure time: 3-4 hours	0.14	1.14	102
concentration: 13.7 (µM), S9 metabolic activation: without S9, exposure time: 24 hours	0.4	1.36	124
concentration: 17.2 (µM), S9 metabolic activation: with S9, exposure time: 3-4 hours	0.16	2.32	101
concentration: 17.2 (µM), S9 metabolic activation: without S9, exposure time: 24 hours	0.46	1.46	116
concentration: 21.5 (µM), S9 metabolic activation: with S9, exposure time: 3-4 hours	0.26	2.46	88.9
concentration: 21.5 (µM), S9 metabolic activation: without S9, exposure time: 24 hours	0.36	1.38	87.7
concentration: 26.8 (µM), S9 metabolic activation: with S9, exposure time: 3-4 hours	0.34	1.94	88.4
concentration: 26.8 (µM), S9 metabolic activation: without S9, exposure time: 24 hours	0.52	1	96.2
concentration: 33.6 (µM), S9 metabolic activation: with S9, exposure time: 3-4 hours	0.14	1.74	92
concentration: 33.6 (µM), S9 metabolic activation: without S9, exposure time: 24 hours	0.62	1.24	111
concentration: 41.9 (µM), S9 metabolic activation: with S9, exposure time: 3-4 hours	0.2	1.54	92
concentration: 41.9 (µM), S9 metabolic activation: without S9, exposure time: 24 hours	0.9	1.42	85
concentration: 52.4 (µM), S9 metabolic activation: with S9, exposure time: 3-4 hours	0.22	2.18	82.7
concentration: 52.4 (µM), S9 metabolic activation: without S9, exposure time: 24 hours	0.62	1.46	93.1
concentration: 65.5 (µM), S9 metabolic activation: with S9, exposure time: 3-4 hours	0.18	1.6	72.9
concentration: 65.5 (µM), S9 metabolic activation: without S9, exposure time: 24 hours	0.96	1.66	88.3
concentration: 81.9 (µM), S9 metabolic activation: with S9, exposure time: 3-4 hours	0.08	1.92	63.6
concentration: 81.9 (µM), S9 metabolic activation: without S9, exposure time: 24 hours	1.12	1.64	85.7
concentration: 102 (µM), S9 metabolic activation: with S9, exposure time: 3-4 hours	0.32	1.78	63.4
concentration: 102 (µM), S9 metabolic activation: without S9, exposure time: 24 hours	1.62	2.52	83.8
concentration: 128 (µM), S9 metabolic activation: with S9, exposure time: 3-4 hours	0.29	1.64	60.9
concentration: 128 (µM), S9 metabolic activation: without S9, exposure time: 24 hours	0.86	2.24	66.5
concentration: 160 (µM), S9 metabolic activation: with S9, exposure time: 3-4 hours	0.24	1.94	69.3
concentration: 160 (µM), S9 metabolic activation: without S9, exposure time: 24 hours	0.84	3.28	44.4
concentration: 200 (µM), S9 metabolic activation: with S9, exposure time: 3-4 hours	0.26	1.28	70
concentration: 200 (µM), S9 metabolic activation: without S9, exposure time: 24 hours	–	–	27.6

— the supplement of paper PMC9151546
